Source: PubChem BioAssay AID686979 (National Center for Advancing Translational Sciences (NCATS), 2013)
The campaign covered roughly 420,000 compounds. About 50,000 (12%) were called active. The inconclusive results got no clear call from the source; some entries with a clear call stand among them for comparison. The call rests on the fitted dose curve; in most records, active means well fitted inhibition curve with a large enough effect; inconclusive means small, poorly fitted or top-dose-only effect; inactive means flat fitted curve, though single readings scatter. No potency is given beside an inconclusive call; the fits are too rough.

Assay: qHTS for Inhibitors of human tyrosyl-DNA phosphodiesterase 1 (TDP1): qHTS in cells in presence of CPT; further: nearly all actives have a fitted effect of over 55% in size
Details: chicken DT40 Tdp1-/-;hTDP1 cells + 20 nM CPT, ATP luminescence, 48 h; series mostly up to 46.2 µM
Outline: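 Cell growth measured by CellTiter-Glo luminescence after a minimum 48 h, 37 C compound exposure with 20 nM CPT in Tdp1-knockout DT40 cells stably expressing hTDP1, seeded 400/well; qHTS titration format.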
Potency means the concentration at half of the fitted maximal effect; tags describe the fitted curve by direction and shape.

SMILES | Potency
COCn1cnc(-c2ccccc2)c1-c1ccccc1 | inactive
CCOc1ccc(C(=O)NCc2nc(-c3ccc(Cl)cc3)no2)cc1OCC | inactive
Cc1c(NC(=O)c2cnn3c2NC(c2ccc(Br)cc2)CC3C(F)(F)F)c(=O)n(-c2ccccc2)n1C (configuration not stated) | inconclusive [inhibitor, partial curve]
OCCN1CCN(c2ncnc3c2sc2nc(N4CCOCC4)c4c(c23)CCC4)CC1 | inconclusive [inhibitor, single point]
CN(C)c1ccc(N=c2sc3ccccc3n2C)cc1 | inactive
O=C(N/N=C/c1ccc(Br)s1)c1ccc([N+](=O)[O-])cc1 | inconclusive [inhibitor, full curve]
COc1ccc2c(CC(=O)NCCN3C(=O)S/C(=C\c4cccnc4)C3=O)coc2c1 | inconclusive [inhibitor, single point]
COc1ccc([N+](=O)[O-])cc1NC(=O)C(C)OC(=O)c1ccccn1 (configuration not stated) | inactive
CC(C)CCNc1nc(N2CCCC2)c2c(c1C#N)CCN(C)C2 | inconclusive [inhibitor, single point]
Cc1cccc(NC(=O)C2CCN(S(=O)(=O)c3c(C)noc3/C=C/c3ccco3)CC2)c1 | active: 16.4 µM
CCN(Cc1ccccc1)S(=O)(=O)c1ccc(F)c(C(=O)Nc2cc(C)ccc2OC)c1 | active: 25.9 µM
CCOC(=O)/C(C#N)=C\c1ccc(OCC(=O)Nc2ccc(C)cc2C)c(OC)c1 | inactive
CNc1nnc(-c2cc3cc(Cl)ccc3oc2=O)s1 | inactive
Cc1onc(-c2ccccc2)c1C(=O)N1CCN(C)CC1 | inactive
Cc1ccc(COC(=O)Cc2coc3cc(O)ccc23)cc1 | inconclusive [inhibitor, single point]
Cc1nnc2c(NCC(C)c3ccccc3)nc3ccccc3n12 (configuration not stated) | inconclusive [inhibitor, single point]
O=C(C1=COCCO1)N1CCN(C(c2ccccc2)c2ccccc2)CC1 | inactive
COc1ccc(-n2c(C)cc(C(=O)CN3C(=O)NC4(CCc5ccccc54)C3=O)c2C)cc1 (configuration not stated) | active: 14.6 µM
CCC(=O)NCCSc1c[nH]c2ccccc12 | inactive
CCN(CC)CCNC1=NCCn2c1cc1cc(OC)ccc12 | active: 20.6 µM
COc1c(C)cccc1C(=O)Nc1ccc(N2CCN(S(C)(=O)=O)CC2)cc1 | inconclusive [inhibitor, partial curve]
CCc1ccccc1Nc1nc(-c2cccnc2)cs1 | inconclusive [inhibitor, single point]
